By IC50 is meant the dose at which the fit gives 50% viability; where the fit passes the top or lowest dose, that dose stands as a limit. AUC sums up the same curve from the lowest dose to the 256-fold higher top dose; the more sensitive the line, the further below 1. For some of these results: Where the top dose is marked as inferred, it is not printed in the source and was worked back from the curve model. For some of these results: An entry number marks a drug with two screens in the source, which often give different values.
What was measured:
Experiment in all cases: Viability of human cancer cell lines after 72 h of drug (GDSC screen)
AMG-706 = compound: CC1(C)CNc2cc(NC(=O)c3cccnc3NCc3ccncc3)ccc21 [AMG-706]; conditions: top dose 2 µM; top dose inferred
Method: (§1)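 Human cancer cell lines in 384-well plates, medium with 10% serum, drug for 72 h over a 256-fold dose range (nine 2-fold or five 4-fold steps up to the top dose). Adherent lines were fixed and stained with the nucleic acid dye Syto60, suspension lines read with resazurin; signal relative to control wells, capped at 0 and 100%. One two-parameter sigmoid per drug and line, fitted in a mixed model over all curves with the slope shared within a line.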

Cyclopamine = compound: CC1=C2C[C@H]3[C@@H](CC=C4C[C@@H](O)CC[C@@]43C)[C@@H]2CC[C@]12O[C@@H]1C[C@H](C)CN[C@H]1[C@H]2C [Cyclopamine]; conditions: top dose 16 µM; top dose inferred
Method: as §1

JNK Inhibitor VIII = compound: CCOc1nc(NC(=O)Cc2cc(OC)ccc2OC)cc(N)c1C#N [JNK Inhibitor VIII]; conditions: top dose 10 µM; top dose inferred
Method: as §1

NSC-207895 = compound: CN1CCN(c2ccc([N+](=O)[O-])c3no[n+]([O-])c23)CC1 [NSC-207895]; conditions: top dose 20 µM; top dose inferred
Method: as §1

FTI-277 = compound: COC(=O)[C@H](CCSC)NC(=O)c1ccc(NC[C@@H](N)CS)cc1-c1ccccc1 [FTI-277]; conditions: top dose 1.024 µM; top dose inferred
Method: as §1

YM155 = compound: COCC[n+]1c2c(n(Cc3cnccn3)c1C)C(=O)c1ccccc1C2=O [YM155]; conditions: top dose 5.12 µM
Method: as §1

NVP-TAE684 = compound: COc1cc(N2CCC(N3CCN(C)CC3)CC2)ccc1Nc1ncc(Cl)c(Nc2ccccc2S(=O)(=O)C(C)C)n1 [NVP-TAE684]; conditions: top dose 2 µM
Method: as §1

OSI-906 = compound: C[C@]1(O)C[C@@H](c2nc(-c3ccc4ccc(-c5ccccc5)nc4c3)c3c(N)nccn32)C1 [OSI-906]; conditions: top dose 2.56 µM; top dose inferred
Method: as §1

PHA-665752 = compound: Cc1[nH]c(/C=C2\C(=O)Nc3ccc(S(=O)(=O)Cc4c(Cl)cccc4Cl)cc32)c(C)c1C(=O)N1CCC[C@@H]1CN1CCCC1 [PHA-665752]; conditions: top dose 2 µM
Method: as §1

SB-715992 = compound: Cc1ccc(C(=O)N(CCCN)[C@@H](c2nc3cc(Cl)ccc3c(=O)n2Cc2ccccc2)C(C)C)cc1 [SB-715992]; conditions: top dose 0.128 µM; top dose inferred
Method: as §1

JQ1 = compound: Cc1sc2c(c1C)C(c1ccc(Cl)cc1)=N[C@@H](CC(=O)OC(C)(C)C)c1nnc(C)n1-2 [JQ1]
Method: as §1

Belinostat = compound: O=C(/C=C/c1cccc(S(=O)(=O)Nc2ccccc2)c1)NO [Belinostat]; conditions: top dose 20 µM; top dose inferred
Method: as §1

CGP-60474 = compound: OCCCNc1cc(-c2ccnc(Nc3cccc(Cl)c3)n2)ccn1 [CGP-60474]; conditions: top dose 0.256 µM; top dose inferred
Method: as §1

Docetaxel = compound: CC(=O)O[C@@]12CO[C@@H]1C[C@H](O)[C@@]1(C)C(=O)[C@H](O)C3=C(C)[C@@H](OC(=O)[C@H](O)[C@@H](NC(=O)OC(C)(C)C)c4ccccc4)C[C@@](O)([C@@H](OC(=O)c4ccccc4)[C@H]21)C3(C)C [Docetaxel]; conditions: top dose 0.0125 µM
Method: as §1

JNJ-26854165 = compound: c1ccc2c(CCNc3ccc(Nc4ccncc4)cc3)c[nH]c2c1 [JNJ-26854165]; conditions: top dose 10 µM
Method: as §1

[1] = top dose 1 µM, screen: GDSC drug entry 1218, top dose inferred
[2] = top dose 2.56 µM, screen: GDSC drug entry 163

| Cell Line | AUC (AMG-706) | IC50 (AMG-706) | AUC (Cyclopamine) | IC50 (Cyclopamine) | AUC (JNK Inhibitor VIII) | IC50 (JNK Inhibitor VIII) | AUC (NSC-207895) | IC50 (NSC-207895) | AUC (FTI-277) | IC50 (FTI-277) | AUC (YM155) | IC50 (YM155) | AUC (NVP-TAE684) | IC50 (NVP-TAE684) | AUC (OSI-906) | IC50 (OSI-906) | AUC (PHA-665752) | IC50 (PHA-665752) | AUC (SB-715992) | IC50 (SB-715992) | AUC (JQ1; [1]) | IC50 (JQ1; [1]) | AUC (JQ1; [2]) | IC50 (JQ1; [2]) | AUC (Belinostat) | IC50 (Belinostat) | AUC (CGP-60474) | IC50 (CGP-60474) | AUC (Docetaxel) | IC50 (Docetaxel) | AUC (JNJ-26854165) | IC50 (JNJ-26854165) |
| --- | --- | --- | --- | --- | --- | --- | --- | --- | --- | --- | --- | --- | --- | --- | --- | --- | --- | --- | --- | --- | --- | --- | --- | --- | --- | --- | --- | --- | --- | --- | --- | --- |
| COLO-824 (breast, adherent) | 0.988 | > 2000 nM | 0.986 | > 16000 nM | 0.988 | > 10000 nM | 0.912 | > 20000 nM | 0.982 | > 1020 nM | 0.028 | < 20 nM | 0.943 | > 2000 nM | 0.916 | > 2560 nM | 0.975 | > 2000 nM | 0.936 | > 128 nM | 0.987 | > 1000 nM | 0.874 | > 2560 nM | 0.502 | 1270 nM | 0.907 | > 256 nM | – | – | – | – |
| CPC-N (small cell lung carcinoma, suspension) | 0.983 | > 2000 nM | – | – | 0.985 | > 10000 nM | 0.744 | 6730 nM | 0.985 | > 1020 nM | 0.029 | < 20 nM | 0.786 | 952 nM | 0.825 | 1720 nM | 0.972 | > 2000 nM | 0.868 | > 128 nM | 0.812 | 597 nM | 0.935 | > 2560 nM | 0.384 | 579 nM | 0.928 | > 256 nM | 0.859 | 12 nM | 0.901 | > 10000 nM |
| JURL-MK1 (chronic myeloid leukaemia, suspension) | 0.987 | > 2000 nM | 0.978 | > 16000 nM | 0.986 | > 10000 nM | 0.972 | > 20000 nM | 0.986 | > 1020 nM | 0.401 | 171 nM | 0.858 | 1630 nM | 0.97 | > 2560 nM | 0.975 | > 2000 nM | 0.759 | 44.5 nM | 0.956 | > 1000 nM | 0.815 | 1400 nM | 0.39 | 623 nM | – | – | 0.883 | > 12.5 nM | 0.769 | 3770 nM |
| KALS-1 (glioma, adherent) | – | – | 0.929 | > 16000 nM | – | – | 0.875 | > 20000 nM | 0.966 | > 1020 nM | 0.045 | < 20 nM | 0.802 | 1440 nM | 0.93 | > 2560 nM | 0.967 | > 2000 nM | 0.735 | 49 nM | 0.944 | > 1000 nM | 0.646 | 472 nM | 0.568 | 2050 nM | 0.661 | 53.2 nM | – | – | 0.898 | > 10000 nM |
| LB2241-RCC (kidney, adherent) | – | – | 0.929 | > 16000 nM | – | – | 0.966 | > 20000 nM | 0.972 | > 1020 nM | 0.395 | 159 nM | 0.757 | 762 nM | 0.919 | > 2560 nM | 0.539 | 162 nM | 0.983 | > 128 nM | 0.98 | > 1000 nM | 0.839 | 2060 nM | 0.633 | 3060 nM | 0.976 | > 256 nM | – | – | 0.888 | > 10000 nM |
| LU-134-A (small cell lung carcinoma, suspension) | 0.987 | > 2000 nM | 0.986 | > 16000 nM | 0.987 | > 10000 nM | 0.857 | 18000 nM | 0.971 | > 1020 nM | 0.033 | < 20 nM | – | – | 0.892 | > 2560 nM | 0.968 | > 2000 nM | 0.858 | 116 nM | 0.848 | 817 nM | 0.715 | 677 nM | 0.329 | 404 nM | 0.791 | – | 0.917 | > 12.5 nM | 0.974 | > 10000 nM |
| LU-139 (small cell lung carcinoma, suspension) | 0.951 | > 2000 nM | 0.961 | > 16000 nM | 0.978 | > 10000 nM | 0.759 | 8840 nM | 0.982 | > 1020 nM | 0.039 | < 20 nM | – | – | 0.981 | > 2560 nM | 0.98 | > 2000 nM | 0.642 | 22.1 nM | 0.918 | > 1000 nM | 0.803 | 1710 nM | 0.361 | 463 nM | 0.81 | 184 nM | 0.82 | 9.98 nM | 0.9 | > 10000 nM |
| NB13 (neuroblastoma, adherent) | 0.985 | > 2000 nM | 0.99 | > 16000 nM | 0.938 | > 10000 nM | 0.768 | 6650 nM | 0.986 | > 1020 nM | 0.049 | < 20 nM | – | – | 0.883 | 2190 nM | 0.975 | > 2000 nM | 0.969 | > 128 nM | 0.99 | > 1000 nM | 0.85 | 1610 nM | 0.153 | 128 nM | 0.766 | 83.9 nM | 0.586 | 1.3 nM | 0.944 | > 10000 nM |

From the supplement of paper PMC4967469
